The structures appear in SMILES notation. This is one part of the list. Many values rest on one well or one pass, so single values are uncertain.
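Note: cells treated in 1,536-well plates, then fixed and DAPI-stained, with nuclei counted from automated high-throughput microscope images.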

The subject of the experiment is WM451Lu. Nature of the experiment: cell count relative to DMSO control; melanoma cells; higher = more viable cells. The settings on record: library dose: standard library concentration; 72 h.
Take `COc1cc([C@@H]2c3cc4c(cc3[C@@H](O[C@@H]3O[C@@H]5CO[C@@H](C)O[C@H]5[C@H](O)[C@H]3O)[C@H]3COC(=O)[C@H]23)OCO4)cc(OC)c1O` [etoposide] + NC(=O)Nc1cc(-c2cccc(F)c2)sc1C(=O)N[C@H]1CCCNC1 [AZD7762] (first compound 0.1 µM, partner dose 0.1 µM): the cell count is 73.7%. Regarding `Cn1cnc2c(F)c(Nc3ccc(Br)cc3Cl)c(C(=O)NOCCO)cc21` [selumetinib] + CN(C)S(=O)(=O)c1ccc2c(c1)/C(=C/c1cc3c([nH]1)CCCC3)C(=O)N2 [SU6656] (first compound 0.075 µM, partner dose 2 µM), the cell count was 57.1%. With `C[C@]1(O)C[C@@H](c2nc(-c3ccc4ccc(-c5ccccc5)nc4c3)c3c(N)nccn32)C1` + CO[C@@H]1[C@H](N(C)C(=O)c2ccccc2)C[C@H]2O[C@]1(C)n1c3ccccc3c3c4c(c5c6ccccc6n2c5c31)C(=O)NC4 [Midostaurin] (first compound 2 µM, partner dose 0.4 µM) the figure was 75.7%; with `Cn1cnc2c(F)c(Nc3ccc(Br)cc3Cl)c(C(=O)NOCCO)cc21` [selumetinib] + C[C@@H]1CCN(C(=O)CC#N)C[C@@H]1N(C)c1ncnc2[nH]ccc12 [CP690550] (first compound 0.075 µM, partner dose 5 µM), 89.3%. With `Cn1cnc2c(F)c(Nc3ccc(Br)cc3Cl)c(C(=O)NOCCO)cc21` [selumetinib] + OCCn1cc(-c2cnc3nnn(Cc4ccc5ncccc5c4)c3n2)cn1 [PF04217903] (first compound 0.075 µM, partner dose 5 µM) the figure was 58.6%.

The values are drawn from the supplement of paper PMC4604168 (melanoma cell lines).
